# According to the supplement of paper PMC7826260:
# Some of the results follow. Cleavage of a single-stranded DNA pool by Rep nickase domains was read by sequencing at 3 µM enzyme and 37 °C for 1 h; the strands have 90 letters, of which the middle is given. Uncut reads are compared with the no-enzyme pool on a log2 scale; more negative means more cut, near 0 not cut, and no call is made. Shares of all reads are compared, so uncut sequences can rise above 0 when many others are cut.
# Experiments:
# Assay in all cases: uncleaved DNA left, log2 of reads against the no-enzyme library (log2 ratio); higher = less cleavage (more negative = more Rep cleavage of the k-mer); sequences stand for … in CTCGTCCG…ACCGGAGA
# [1] = tested on: T1, Rep nickase domain of Muscovy duck circovirus
# T1 sequence (residues 1-111 of Rep, tag left off): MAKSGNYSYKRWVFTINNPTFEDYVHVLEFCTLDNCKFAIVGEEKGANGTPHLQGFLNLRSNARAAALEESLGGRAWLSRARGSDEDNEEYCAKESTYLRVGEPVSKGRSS
# Description: (§1)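 A pool of 90-nt single-stranded DNAs with seven random bases just before the constant AC of the nick site (name = the seven bases) was cut by 3 µM recombinant His6-SUMO-tagged Rep nickase domain (300 nM DNA, 50 mM HEPES pH 8.0, 50 mM NaCl, 1 mM MnCl2, 1 h, 37 °C, three replicates). Uncut DNA was amplified and sequenced.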
# [2] = tested on: T2, Rep nickase domain of banana bunchy top virus
# T2 sequence (residues 1-94 of Rep, tag left off): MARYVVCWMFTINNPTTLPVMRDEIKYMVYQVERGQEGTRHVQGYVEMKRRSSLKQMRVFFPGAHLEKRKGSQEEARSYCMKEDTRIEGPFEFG
# Description: as §1
# [3] = tested on: T3, Rep nickase domain of cabbage leaf curl virus
# T3 sequence (residues 1-116 of Rep, tag left off): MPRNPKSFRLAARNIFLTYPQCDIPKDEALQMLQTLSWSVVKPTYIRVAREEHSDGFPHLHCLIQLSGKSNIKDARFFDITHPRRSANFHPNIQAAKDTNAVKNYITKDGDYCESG
# Description: as §1
# [4] = tested on: T4, Rep nickase domain of chickpea chlorotic dwarf virus
# T4 sequence (residues 1-124 of Rep, tag left off): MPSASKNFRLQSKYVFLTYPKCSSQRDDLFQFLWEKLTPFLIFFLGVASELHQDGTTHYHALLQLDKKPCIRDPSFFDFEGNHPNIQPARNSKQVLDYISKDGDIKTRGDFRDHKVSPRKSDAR
# Description: as §1
# [5] = tested on: T5, Rep nickase domain of faba bean necrotic yellows virus
# T5 sequence (residues 1-98 of Rep, tag left off): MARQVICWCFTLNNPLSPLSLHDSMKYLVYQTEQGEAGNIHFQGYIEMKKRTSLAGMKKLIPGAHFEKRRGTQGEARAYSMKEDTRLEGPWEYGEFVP
# Description: as §1
# [6] = tested on: T6, Rep nickase domain of maize striate mosaic virus
# T6 sequence (residues 1-117 of Rep, tag left off): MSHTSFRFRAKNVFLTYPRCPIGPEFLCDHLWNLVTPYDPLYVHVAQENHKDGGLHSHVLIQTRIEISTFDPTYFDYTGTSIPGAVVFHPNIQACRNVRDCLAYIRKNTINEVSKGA
# Description: as §1
# [7] = tested on: T7, Rep nickase domain of porcine circovirus 2
# T7 sequence (residues 2-116 of Rep, tag left off): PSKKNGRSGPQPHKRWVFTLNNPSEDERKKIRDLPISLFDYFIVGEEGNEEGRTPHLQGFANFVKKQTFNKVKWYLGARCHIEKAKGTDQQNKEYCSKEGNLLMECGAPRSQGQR
# Description: as §1
# [8] = tested on: T8, Rep nickase domain of tomato yellow leaf curl virus
# T8 sequence (residues 1-136 of Rep, tag left off): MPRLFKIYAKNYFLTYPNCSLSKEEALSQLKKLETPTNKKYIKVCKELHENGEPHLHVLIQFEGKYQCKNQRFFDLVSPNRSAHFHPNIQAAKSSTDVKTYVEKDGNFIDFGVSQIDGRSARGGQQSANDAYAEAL
# Description: as §1
# [9] = tested on: T9, Rep nickase domain of wheat dwarf virus
# T9 sequence (residues 1-137 of Rep, tag left off): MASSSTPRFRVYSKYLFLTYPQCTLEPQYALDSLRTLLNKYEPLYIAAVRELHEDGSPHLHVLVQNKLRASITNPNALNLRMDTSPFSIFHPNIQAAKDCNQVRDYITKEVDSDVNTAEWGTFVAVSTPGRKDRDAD
# Description: as §1
Sequence,uncleaved DNA left (log2) [1],uncleaved DNA left (log2) [2],uncleaved DNA left (log2) [3],uncleaved DNA left (log2) [4],uncleaved DNA left (log2) [5],uncleaved DNA left (log2) [6],uncleaved DNA left (log2) [7],uncleaved DNA left (log2) [8],uncleaved DNA left (log2) [9]
GCAGTGT,0.0934,-0.0429,-0.389,-0.282,-0.0454,-0.885,0.0498,0.014,-0.168
TCCCATA,-0.0115,-0.0954,-0.0799,-0.645,-0.0201,-0.478,-0.18,-0.0368,0.0756
GCTCGTG,-0.0466,-0.118,-0.63,-0.424,-0.111,-0.868,0.0502,-0.063,-0.0826
GGATATT,-0.527,0.0317,0.846,1.82,0.0871,2.16,-1.81,0.126,0.167
CCGAGTG,0.027,0.0278,-0.101,0.511,0.0368,0.782,0.0347,0.00243,-0.0651
TTGGGTG,0.0548,-0.0508,-0.433,-0.531,-0.0552,-0.698,0.0958,-0.0344,-0.202
CATTAGT,-3.61,-3.83,-0.968,-1.75,-0.267,-1.28,-3.61,-0.0818,-0.218
CTAAACG,-0.0362,-0.125,-0.868,-0.174,-0.0198,-1.05,0.235,-0.127,-0.0354
GTTGTTC,0.132,0.0723,0.456,0.687,0.0922,1.56,0.0766,0.134,0.0989
TGTTGTC,-0.034,-0.0699,0.0921,0.0852,-0.0687,-0.345,-0.00568,-0.0288,-0.0451
GTGTACC,-0.014,0.0262,0.143,0.786,-0.121,1.77,-0.0916,0.00801,0.0257
CGGGAAA,-0.00625,0.105,0.767,1.77,0.0533,2,0.253,-0.0117,0.233
TTTCTCG,-0.124,-0.0352,-0.755,-0.646,-0.11,-1.11,0.0926,-0.0398,-0.26
CGGGATC,-0.0138,-0.118,0.59,1.5,-0.131,1.88,0.116,-0.149,-0.0162
CGGAGGG,-0.0259,-0.0085,-0.14,0.281,0.0388,-0.366,0.0801,-0.032,-0.0517
ACTTACT,-3.08,-1.33,-0.49,-2.75,0.0823,-0.741,-3.37,-0.0504,-0.0075
CCGAACT,0.0697,0.0168,-0.0185,-2.16,-0.00255,-0.0201,-0.153,-0.14,-0.133
GAATCTC,-0.172,-0.00856,-2.52,-2.2,0.0663,0.289,-0.615,0.0459,-1.22
GCAACTG,-0.0218,0.0301,0.0761,0.538,-0.0341,1.32,0.00504,-0.0833,0.143
TCCTATT,-3.38,-2.57,-1.23,-2.8,-0.255,-0.876,-3.59,0.0493,-0.897
GTGCAGA,-0.032,-0.0502,0.185,0.773,-0.0489,0.535,0.0993,0.0321,0.00668
ACCCAAG,0.144,0.121,-0.351,0.202,0.0839,-0.732,0.255,-0.0409,0.0574

Sequence,uncleaved DNA left (log2) [1],uncleaved DNA left (log2) [2],uncleaved DNA left (log2) [3],uncleaved DNA left (log2) [4],uncleaved DNA left (log2) [5],uncleaved DNA left (log2) [6],uncleaved DNA left (log2) [7],uncleaved DNA left (log2) [8],uncleaved DNA left (log2) [9]
ACGTTCT,-0.764,-0.156,-0.37,-2.27,-0.107,-0.72,-2.75,-0.153,-0.0367
AGGTTAC,0.0273,-0.0487,-0.0203,-0.786,-0.113,-0.087,0.0921,-0.0855,-0.0552
TCGGAGC,0.0491,-0.0323,-0.14,0.0879,-0.0517,-0.564,0.144,-0.0433,0.0403
CCCACCC,-0.152,-0.105,0.0191,-0.786,-0.129,-0.278,-0.503,-0.144,-0.0232
TGGCTAT,0.00535,-0.00557,0.381,0.881,0.0775,1.24,0.11,0.107,0.0887
ACCAAGA,-0.111,-0.0991,-0.141,-0.0999,0.0215,-1.11,0.0977,0.00595,-0.106
CTTTGGC,-0.202,-0.201,-0.544,-0.837,-0.0243,-1.28,-0.0154,-0.103,-0.224
TTATGGA,0.12,0.0252,0.0628,0.074,0.0966,-0.4,0.0572,0.00355,0.0865
CTGCGCA,-0.116,-0.0673,-0.591,-0.524,-0.0817,-0.87,-0.00169,-0.122,-0.136
ATGTCTG,0.0307,-0.123,0.017,0.64,0.0817,0.738,0.065,-0.0205,-0.0595
TGCACAC,-0.0139,0.114,0.234,0.514,0.0157,0.601,0.0246,0.0112,0.0929
TAAGTGG,0.0779,-0.0223,0.082,0.285,0.0297,-0.0346,0.0879,-0.101,0.0024
GGTGACA,0.0207,0.0159,0.866,2.03,-0.0462,2.29,0.151,0.031,0.146
GAATCTA,0.00913,0.0573,-0.424,-1.66,-0.0362,0.618,-0.431,0.0146,-0.161
AGTACTT,-0.0888,-0.0956,0.122,-0.549,-0.126,1.13,-3.18,-0.0397,0.0872
TTGTTGA,0.0477,0.0635,-0.182,-0.346,0.0266,-0.95,0.0454,0.12,-0.0835
CGGATTA,0.0307,0.0341,0.121,0.0811,-0.0437,0.472,0.0208,-0.07,0.122
GTGGGTG,0.106,-0.0207,-0.0366,0.295,0.0812,0.199,0.0792,-0.117,0.0377
GGTTTAC,-0.00788,0.1,0.268,0.822,-0.00375,1.69,0.129,0.0398,0.0628
CTTATCA,0.125,0.207,1.02,0.851,0.0064,2.15,0.128,0.21,0.344
TCTTGAA,0.106,0.086,0.134,-0.446,0.137,-0.524,0.0584,0.192,0.0352
GGCATCG,0.0486,0.0557,-0.307,-0.286,-0.0943,-0.651,0.134,0.0548,-0.078

Sequence,uncleaved DNA left (log2) [1],uncleaved DNA left (log2) [2],uncleaved DNA left (log2) [3],uncleaved DNA left (log2) [4],uncleaved DNA left (log2) [5],uncleaved DNA left (log2) [6],uncleaved DNA left (log2) [7],uncleaved DNA left (log2) [8],uncleaved DNA left (log2) [9]
CTGAGCA,0.0762,0.0686,-0.199,-0.379,0.008,-0.849,-1.55,0.0083,-0.0372
CAGTAGC,-0.0209,-0.068,-0.632,-0.705,0.00508,-1.29,-0.607,-0.00625,-0.137
ATGGAAA,0.0722,0.0764,0.198,0.876,0.0861,0.666,0.237,0.0462,-0.00771
CGATGAC,0.0209,-0.0398,-0.108,0.482,-0.00372,0.157,0.0614,0.0115,0.0127
GAGCCGA,0.171,0.221,0.136,0.152,0.0364,-0.132,0.0599,0.169,0.164
GTGACCC,-0.115,0.0209,0.327,0.977,-0.0186,1.64,-0.0391,0.0436,0.0436
CTTAGCC,0.185,0.0134,-0.0164,-0.212,0.0216,-0.935,-0.00122,0.0795,0.0168
CAGCGAA,-0.108,-0.214,-0.344,-0.526,-0.122,-1.13,-0.266,-0.0314,-0.25
ACTTCCG,0.00185,0.0758,-0.845,0.282,-0.0117,-0.651,0.13,0.0157,-0.128
AAATCGT,-0.473,-0.0824,-3.7,-2.87,-0.0738,-2.35,-2.91,-0.0193,-1.54
TCTTTGG,-0.0818,-0.165,-0.0398,-0.104,-0.0961,-0.588,-0.0851,-0.0771,-0.11
AAGCCCG,-0.0617,-0.0707,-0.598,-0.567,-0.0783,-1.07,0.185,-0.0361,-0.0988
TAATGGT,-2.7,-0.299,-4.39,-2.4,-0.0568,-2.93,-3.7,-1.3,-3.94
GGGTTTC,-0.0825,0.0357,0.528,1.44,-0.0992,1.98,0.0734,-0.0713,0.00452
AGAGGCT,0.0581,0.0143,0.106,0.626,0.0938,1.22,0.16,-0.0398,0.168
TCTAGTG,0.0714,-0.0237,-0.407,-0.783,0.0475,-1.06,0.151,0.0697,-0.0753
CTAGTAT,0.0574,0.112,0.257,0.0223,0.0352,0.0933,0.0668,0.0796,-0.0108
CTTGGGT,0.0695,0.0303,-0.117,0.264,-0.00354,-0.123,0.178,0.00122,-0.0237
ATTATTT,-0.81,-0.572,-0.0711,-2.69,-0.0422,-0.753,-3.45,-0.0238,-0.144
TGCCTCT,-0.00786,-0.0925,-0.0203,-1.49,-0.167,-0.268,-0.202,-0.0806,-0.0388
